# Measurements from PubChem BioAssay AID504832 (National Center for Advancing Translational Sciences (NCATS), 2011).
# “And” between values parts separate entries of the source, which are not always exact repeats. Identical values can stand only once. The campaign covered roughly 310,000 compounds. About 18,000 (5.8%) were called active. Inconclusive means that the source gave no clear call. Such entries were picked first, then a sample of the others. Calls follow the shape of the dose curve; as a rule, active = well fitted inhibition curve with a large enough effect; inconclusive = small, poorly fitted or top-dose-only effect, or another doubt; inactive = no such curve, though single readings can be large or run the other way. No potency is given beside an inconclusive call; the fits are too rough.
# Assay: Primary qHTS for delayed death inhibitors of the malarial parasite plastid, 48 hour incubation
# Conditions: P. falciparum luciferase growth in erythrocytes; series mostly up to 28.7 µM
# Procedure, shortened: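 Luciferase-expressing parasites in RBCs, 2% Hct / 0.1% parasitemia final; RPMI 1640 + 0.5% Albumax; 37 C, 5% CO2, one generation; luminescence read-out, lower signal = inhibition.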
# % is scaled to controls: 0 for no effect and ±100 for the full control effect; potency is read from the fitted curve at half-maximal effect; tags tell the direction and shape of the fitted curve.
SMILES,Potency,"activity change, negative = inhibition"
C1CCC(C(CC2CCCCN2)C2CCCCC2)CC1 (stereo not given),active: 3.79 µM and active: 4.15 µM and active: 3.7 µM,
C/C(=N\NC(=O)CN1CCCCC1)c1ccccc1O,"inconclusive [inhibitor, partial curve]",
NC(=O)c1ccc(NC(=O)c2cc(S(=O)(=O)N3CCCCC3)ccc2N2CCOCC2)cc1,"inconclusive [inhibitor, single point]",
COc1ccc(-c2cc(C(=O)N3CCN(c4cccc(C)c4C)CC3)c3ccccc3n2)cc1OC,active: 9.28 µM,
O=C(CCc1ccccc1)Nc1ccccc1C(=O)NCc1ccco1,"inconclusive [inhibitor, single point]",
CN(C)c1cccc(C(=O)OCC(=O)Nc2ccccc2-c2ccccc2)c1,"inconclusive [inhibitor, single point]",
Cc1ccc(O)c(NC(=O)C2CC(c3c(F)cccc3Cl)=NO2)c1 (stereo not given),"inconclusive [inhibitor, full curve, poor fit]",
c1ccc2sc(NC3=NCN(C4CCCCCC4)CN3)nc2c1,"inconclusive [inhibitor, partial curve, poor fit]",
COC(=O)c1ccc(C(=O)OC)c(NC(=O)CSc2cccc[n+]2[O-])c1,"inconclusive [inhibitor, full curve]",
C/C(=N\NC(=O)c1cc2ccccc2cc1O)c1ccccn1,active: 3.7 µM,
Cc1ccc(C)c(N(C(=O)Cn2nnc3ccccc32)C(C(=O)NC(C)(C)C)c2ccsc2)c1 (stereo not given),"inconclusive [inhibitor, full curve, poor fit]",
N#Cc1ccc(-c2csc(-c3ccno3)n2)cc1,inactive,
N#Cc1c(Cl)cccc1N1CCC(C(N)=O)CC1,inactive,
O=C(NCCCN1CCCC1)c1ccc2c(c1)N(Cc1ccc(F)cc1)C(=O)c1ccccc1S2=O (stereo not given),"inconclusive [inhibitor, partial curve]",
COc1ccc2c(c1)OCC1=C2CCC2(C)C(=O)CC=C12 (stereo not given),"inconclusive [inhibitor, single point]",
Cc1cccc(C)c1N1C(=O)CN(Cc2ccccc2)C1=S,"inconclusive [inhibitor, partial curve, poor fit]",
Cc1ccccc1CS(=O)(=O)Cc1ccc(C(=O)NC2CCCCC2)o1,inactive,
CCOc1ccc(C(=O)c2nc3c(n2O)CCCC3)cc1,inactive,
CN(C)C1=NCCN1CCCC1CCCC1,"inconclusive [inhibitor, single point]",
CC1CCCCN1C(=O)Cn1cc(/C=C2/C(=O)Nc3ccccc32)c2ccccc21 (stereo not given),"inconclusive [inhibitor, single point]",
COc1ccc(S(=O)(=O)N2CCOCC2)cc1NC(=O)CSc1cc(C)ccc1C,inactive,
CCOC(=O)C1CCN(c2c(NCc3ccc(C(=O)N(C)Cc4ccccc4)cc3)c(=O)c2=O)CC1,"inconclusive [inhibitor, partial curve]",
Cn1nc(C(F)(F)F)c(C#N)c1N1CCN(c2ccccc2F)CC1,inactive,
Cc1nn(C)cc1/C=N\NC(=O)c1csc2c1CCCC2,inactive,

SMILES,Potency,"activity change, negative = inhibition"
CCN(CC)CCCNC(=O)COc1ccc2oc3c(c2c1)CCCC3,"inconclusive [inhibitor, single point]",
CCN(CC)c1ccc2cc(-c3nnc(-c4ccccc4)o3)c(=O)oc2c1,inactive,
COC(=O)Cn1cnc2c(cnn2-c2ccc(C)cc2)c1=O,,inactive: 0.406% [at 0.00184 µM]
NS(=O)(=O)c1ccc(NC(=O)/C=C/c2cccc(Cl)c2)cc1,inactive,
O=C(O)C1CCCCN1C(=O)c1ccc(S(=O)(=O)N2CCCC2)cc1 (stereo not given),inactive,
Clc1ccc(OCCCN2CCCCC2)c(Br)c1,inactive,
COc1ccc(Oc2ccc(C(F)(F)F)cc2NC(=O)c2ccc(C)cc2)cc1,"inconclusive [inhibitor, single point]",
CC(Oc1ccc(Br)cc1)C(=O)Nc1ccc(S(=O)(=O)N(C)C2CCN(C)CC2)cc1 (stereo not given),"inconclusive [inhibitor, single point]",
COc1cccc(CNC(=O)CN2C(=O)CSc3ccc(S(=O)(=O)N4CCOCC4)cc32)c1,inactive,
O=C(Nc1cc(Cl)ccc1O)c1snnc1-c1ccccc1,"inconclusive [inhibitor, partial curve]",
COc1ccc(CCNC(=O)C(=O)NCC2CCCN2S(=O)(=O)c2ccccc2)cc1OC (stereo not given),"inconclusive [inhibitor, partial curve]",
COc1cc(Cl)ccc1OCc1cc(C(=O)N2C[C@]3(C)C[C@H]2CC(C)(C)C3)no1,"inconclusive [inhibitor, single point]",
O=C(CCCCCNC(=O)N1CCn2c1nc1ccccc12)NCCc1ccccc1,"inconclusive [inhibitor, partial curve]",
O=C(COC(=O)c1ccc(O)cc1)Nc1cccc(S(=O)(=O)N2CCCCC2)c1,"inconclusive [inhibitor, partial curve]",
Cc1nc(NC(=O)c2ccc(Cl)cc2)sc1Cc1ccc2c(c1)OCO2,"inconclusive [inhibitor, single point]",
Oc1ccccc1CNCCCNCc1ccccc1O,active: 8.28 µM,
Cc1cc(C(=O)N2CCCC(C(=O)c3cccc(C(F)(F)F)c3)C2)nc(C)n1 (stereo not given),inactive,
Cc1nnnn1/C(=C\c1ccccc1)C(=O)OCC(=O)NC1CCCCC1,"inconclusive [inhibitor, single point]",
CCc1cccc(CC)c1NC(=O)CO/N=C(\N)CC(=O)NC1CCCCC1,"inconclusive [inhibitor, single point]",
CC1(C)SC(=S)N(/N=C/c2ccc(O)cc2)C1N(O)C(=O)Nc1ccc([N+](=O)[O-])cc1 (stereo not given),"inconclusive [inhibitor, single point]",
COc1ccc(CCNC(=O)C2CCN(Cc3nc(-c4cccc(Cl)c4)oc3C)CC2)cc1OC,"inconclusive [inhibitor, partial curve]",
Cc1cc(=O)oc2cc(OC(C)C(=O)NC3CCCC3)ccc12 (stereo not given),inactive,
Cc1ccc(C(CC(=O)N2CCOCC2)c2ccco2)cc1 (stereo not given),"inconclusive [inhibitor, single point]",
c1ccc(-n2cc(CN3CCCC3)c(-c3ccc4c(c3)OCO4)n2)cc1,active: 5.22 µM,

SMILES,Potency,"activity change, negative = inhibition"
Cc1cccc(S(=O)Cc2ccc(C(=O)N3CCN(C(=O)c4ccco4)CC3)o2)c1 (stereo not given),inactive,
O=S(=O)(Nc1ccc(-c2ccc(N3CCOCC3)nn2)cc1)c1ccc(Cl)c(Cl)c1,"inconclusive [inhibitor, single point]",
COc1ccc(OC)c(NC(=O)CSc2nnc(C3CCCCC3)n2N)c1,"inconclusive [inhibitor, partial curve, poor fit]",
Cc1ccc(C(=O)OCC(=O)Nc2cccc(S(=O)(=O)N3CCOCC3)c2)o1,"inconclusive [inhibitor, single point]",
CCOc1ccccc1NC(=O)CSc1ccc([N+](=O)[O-])cc1,active: 2.94 µM,
CC(NC(=S)Nc1ccc(OC(F)F)c(Cl)c1)C(C)(C)C (stereo not given),"inconclusive [inhibitor, single point]",
Cc1cc(Cl)ccc1NC(=O)C1CCN(S(C)(=O)=O)CC1,"inconclusive [inhibitor, single point]",
COc1cccc(CNCCc2c[nH]c3ccccc23)c1OCc1ccccc1F,"inconclusive [inhibitor, single point]",
CC(C)CN(CCCNC(=O)CN1C(=O)COc2ccc(S(=O)(=O)N3CCCC3)cc21)CC(C)C,active: 11.7 µM,
CCOC(=O)C(CC(=O)c1ccccc1)CC(=O)c1ccccc1,inactive,
Cc1ccc(-c2cc(C(=O)O)c3cc(Br)ccc3n2)o1,inactive,
Cc1cc(F)ccc1S(=O)(=O)N1CCCCC1CCNC(=O)C(=O)NCCN1CCOCC1 (stereo not given),"inconclusive [inhibitor, partial curve]",
Cn1c(=O)c([N+](=O)[O-])c(NCC2CCCO2)c2ccccc21 (stereo not given),inactive,
COc1cccc(S(=O)(=O)NCC(=O)Nc2ccc(C(C)(C)C)cc2)c1,"inconclusive [inhibitor, partial curve, poor fit]",
COc1ccccc1OCCn1cc(C(=O)c2ccco2)c2ccccc21,active: 11.7 µM,
COc1cc(NC(=O)CNC(c2ccccc2)c2ccccc2)cc(OC)c1OC,"inconclusive [inhibitor, partial curve]",
Cn1nnc(NC(=O)c2ccc(C(C)(C)C)cc2)n1,active: 9.28 µM,
Cn1cccc1CNCCc1ccc(F)cc1,"inconclusive [inhibitor, single point]",
CC(C)C(NS(=O)(=O)c1ccccc1F)C(=O)OCC(=O)NCc1ccco1 (stereo not given),inactive,
O=C(c1cn(-c2ccccc2)nc1-c1cccnc1)N1CCCC(C(F)(F)F)C1 (stereo not given),"inconclusive [inhibitor, partial curve, poor fit]",
CCC(C)(C)NC(=O)C(c1ccc(C)cc1)N(CC1CCCO1)C(=O)CNC(=O)c1cccs1 (stereo not given),"inconclusive [inhibitor, single point]",
CC1CCC(N2CCN(C(=O)COc3ccccc3)CC2)CC1 (stereo not given),"inconclusive [inhibitor, single point]",
